# Measurements as given in the supplement of paper PMC11417369.
# Some of the results follow.
# Test system: PfHDP1 homeodomain (GST-tagged)
# Experiment: gcPBM binding intensity (ln(normalized median fluorescence intensity)); higher = stronger DNA binding
# Summary of the method: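 Alexa488 anti-GST antibody, scanned at 488 nm, detected GST-tagged P. falciparum DNA-binding domains that had been expressed in E. coli and incubated for 1 h on an Agilent 4 × 180k array. The array carried primer-extended double-stranded 36-bp intergenic genomic probes and negative controls. Binding intensity is the highest Masliner-normalised natural-log median intensity across replicate spots of either orientation of each probe.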
row,Sequence,gcPBM binding intensity (ln)
1,AATCTGATTTGTATATGTACACAAATATTTTTATTT [XGTACX_site5295],6.51
2,TATAAAAAAATATATATATATATATATATATAAATA [TGCATGCA_negctrl_site22],6.98
3,TTTAATAATTATTAAAGTACAAAATAAATATTGAAT [XGTACX_site7538],6.7
4,GATAAAACGTTATGCACACGTACGTGGGTATTTATA [CACACA_site4954],10.3
5,AAGAAAAAAAAAAAAAATATATATATAAGAACATAT [TGCATGCA_negctrl_site131],6.53
6,TTTTCAATTAATAATACACACATGTATATATCATTA [CACACA_site7539],6.56
7,TGATGTTGTAACAAAAGTACACACACATTTCTATAA [XGTACX_site5837],6.33
8,TAATGCATTATTAGAATACACACCATACGCATATTT [CACACA_site289],6.68
9,TTTTTCTTTTGATGTTGTACATATATATTATATATA [XGTACX_site2754],7.02
10,TGCTATATAATATGAGCACACATAAGATTTGGTGTT [CACACA_site8148],6.77
11,ATATTTTTATTTAAACGTACATACACGTTGAAAAGA [XGTACX_site4567],6.47
12,AACTGTACAATTTTTGTGCACAATAATTATTAATAT [GTGCAC_site9462],11
13,AATAAAAATTCAAGTTGTACTTTTTTAAAAATACAA [XGTACX_site3949],6.23
14,AATTTTTGTTACAAGATGCACTTAATTTTTCTAAAT,7.92
15,AATAATATATATATTACACACTAATTGTATTATATA [CACACA_site448],6.5
16,CCAACATGCAGACGCACACACAAAAAAAGCATGCAT [CACACA_site74],6.79
17,TTAATACCCGGACACACACACACAAAATAAAATACA [CACACA_site4296],6.89
18,ATTTATTTATTTAGCTGTACATTTATACAGAACGAT [XGTACX_site3336],6.3
19,TAACAATATCTAGATACACACACATATCTCTCAATC [CACACA_site8122],6.7
20,AAAATGAATAAAAATACACACATATATGTTATTCTC [CACACA_site2671],6.44
21,TGATTCATTGATAAGGGTACATTTATAATTATGATA [XGTACX_site6319],6.02
22,ACGTATCAATTTATTGGTACACATAAATATATATAT [XGTACX_site5556],8.13

row,Sequence,gcPBM binding intensity (ln)
1,ACATTGAACAAAATAGTAAGCACATATATATATATA [GTGCAC_negctrl_site679],9.2
2,AAACATATATTAAGCACACACAAACAAAAAAACAAA [CACACA_site2549],7.2
3,TTTTCATACACTGCTAGTATATACTACCACTGACAT [GTGCAC_negctrl_site514],7.49
4,ACACATAATATAAAGGTGCTATATTGTATTCATTTT [GTGCAC_site9457],6.52
5,ATATATTATATAAAAAGTACTAAAATAGTAAGATGT [XGTACX_site7493],7.23
6,TATTCATTAAACCATACACACATAATTTTTTTATAA [CACACA_site4618],6.56
7,GTGTGCCAAATTAGCACACACATATATACATGAATT [CACACA_site7346],7.57
8,AATGATTTTAAATGAACATAATTTATATTCATAACA [GTGCAC_negctrl_site256],6.13
9,ATCATTTTGTGTTCAAGTACATAATGTTTTACACAA [XGTACX_site3565],6.32
10,AACGAAGCATAAAATGTTATGTATATATATAAATAT [TGCATGCA_negctrl_site304],6.47
11,TACCAAAAAAAAAAAATAATAATAAAAAAAAAAAAA [TGCATGCA_negctrl_site11],6.07
12,GCAAAACATTTTTAAAATAAAAATAATAAAATATAT [CACACA_negctrl_site219],6.37
13,CATACATTATAAGATACATGCATATATCTGAACATA [TGCATGCA_site797],6.49
14,ATGTGGAAATAGAGCACACATATATATAATATATAT [CACACA_site884],6.9
15,AAAAAATATAAATATGTAAAAAGAGAAAAAAAAAAG [GTGCAC_negctrl_site9],6.51
16,TGAAAATGGGAACCGTGTACAGGGCAGTTATAGGGG [XGTACX_site2950],7.09
17,ATATTTAATTCATCATGTACACAAATAAGAAACAAA [XGTACX_site8076],7.15
18,TATAAACATAAAACCAGTACATATATATTTTTCTTC [XGTACX_site212],6.21
19,TTATGAAAATATTTTTTTCGTTTGATGTATATGTTT [CACACA_negctrl_site1556],6.22
20,TGTTTGAATATAATCACACATTTATATAAAAAGTTA [CACACA_site5237],6.04
21,TCTTTTTGCATGTGTGTGCGCACAAAATACACAAAA [GTGCAC_site9718],9.9
22,TTGTTATGTTTTATTTGTACGTAGGTTTCTATCAAA [XGTACX_site7636],6.93

row,Sequence,gcPBM binding intensity (ln)
1,AAATTGAAATATTCCTGTACACATTTTGAAAACTTA [XGTACX_site6101],6.46
2,AAAATATAGTAACACATACACACATATATATTTATA [CACACA_site2504],6.74
3,TATTAAACTAAATGTAGTACATACACAAAAGAAACC [XGTACX_site606],7.52
4,AACAATAAAAATAATTGTACAAGTCTAAAAAAAATT [XGTACX_site20],6.28
5,ATAAAGAAAAATAGAAGTACATATATGCATGTTAAT [XGTACX_site4480],6.78
6,ATAACAAAATAATAATGTACGTATAAATATAATTTA [XGTACX_site6049],6.62
7,TATATCATCATGTATGTACACACATACATATATTAT [CACACA_site8387],6.62
8,TACGTATTATAAATATGTACATATAATATGTATATA [XGTACX_site468],6.31
9,CAAAAACATACCTACACACACAATATGTATATATAA [CACACA_site3514],6.49
10,TAACAATAACTTTATACACACATAATATAAATATAT [CACACA_site7635],6.57
11,TAAAATTTTAACAAAAAAAAAAAAAAAAAAAGAAAA [CACACA_negctrl_site1335],5.92
12,TAAAAAATTAAGCAACGTACAAATGAAAAGTATAAT [XGTACX_site1058],7.2
13,TGATAACCAAAAAGGGGTACATACACAAAAAAATAC [XGTACX_site1254],7.31
14,TACTTATTAGACTATTGTACATACATTATTAATATT [XGTACX_site7849],6.78
15,AACAACATTTGATAAACACACAGAAGTATAAATATA [CACACA_site5327],6.57
16,ATATTTTTTTTTTTTTGTACATATATCATTATATAT [XGTACX_site866],6.47
17,TTTTTGTCTGCATACGCACACACGTGTACCATCTTA [CACACA_site1173],7.71
18,TGGTTACTGTCATTAGTTATTTCTTGTTGACAATTA [CACACA_negctrl_site416],6.5
19,CCGTTGAACATATATGCACACACATAAAATAAAAAA [CACACA_site8761],10
20,TTTGTTGACGGACACACACACATACAGATATATATA [CACACA_site5292],6.97
21,ATGGTTAAAAAAAGCATACACACTATCCTCTTTGCT [CACACA_site2552],6.39
22,ATAATAAATTATTATGTACACACATAATAGTATATA [CACACA_site8538],6.59

row,Sequence,gcPBM binding intensity (ln)
1,AATATTTATATTTACACACACATAATACCTATATGT [CACACA_site6167],6.57
2,TAGATACATAAAAGTGGTACATATATATATATATAT [XGTACX_site6263],9.28
3,TGGAAATTCTCAGGAGTGCATATTTGCAGTTTACGT [GTGCAC_site9768],8.86
4,TTATATATTTTGATTGCACACAGAATTTAAATCATG [CACACA_site8735],9.09
5,TTTAATCATTTTAGCTTACACACAAAATTTTGTTAT [CACACA_site2938],7.59
6,ATATATGTGCTAAAATGTACATAGTATAATATATTT [XGTACX_site1949],7.35
7,ATATTTAAGATTTAATCACACACATATATATTATAT [CACACA_site8946],6.53
8,ATAAAATAAAGGAAAAATATTAAGTTTTAAGAAAAT [CACACA_negctrl_site1066],6.31
9,AAAATATATTCAACTTGTACATATATATATATATAT [XGTACX_site7629],9.4
10,TTTTTTTTTTGCACGTGTACATAAAAATATATATAT [XGTACX_site3116],9.36
11,TTTTTGTAATGACACACACACAAACAGAAAAAATAA [CACACA_site7062],6.76
12,GGATTTTTCGAATCATGTACATATTTAATTAAAAAA [XGTACX_site7939],6.44
13,TACATAAACATTTATACACACATTATGTATACATAT [CACACA_site405],7.05
14,TATTTTTCCATATGCACACACACCGTATCTAGAATA [CACACA_site6654],10.4
15,AACTTTGGCAAACACACACACACACCCACACCCACA [CACACA_site588],6.62
16,TAGAATGTATGTAGTGCACACCTCTATAATATATTA [CACACA_site1873],10.5
17,TTCTCACTTTTAAATTTTATTCAAAAATAAGGAAAG [XGTACX_negctrl_site444],6.56
18,GAGAGTAAAACAAATATACACACCATAAAGTTATAA [CACACA_site1686],6.47
19,ATTTCGTTCTTTTATGCACACTCAACATATAAATTA [CACACA_site8322],9.99
20,ATATATATATATAAATGTACATATGTATAATTCATA [XGTACX_site6679],9.04
21,TTTTTATTGCAATACTTATATTTTTTTATGATTAAA [TGCATGCA_negctrl_site147],10.1
22,ATAATAATAAAGTATGCATGCATATAATATAATATA [TGCATGCA_site796],6.99
